Reference: paper PMC4336329 (PLoS ONE, 2015)
The whole screen tested about 310,000 compounds, of which about 2,200 (0.71%) showed an effect of 50% or more. The effect is printed as a negative number. The list shows a part of the results.

Biological target: human ether-à-go-go-related gene (hERG) potassium channel (human, UniProt Q12809)
Test: primary screen, population patch clamp on CHO cells stably expressing hERG

human ether-à-go-go-related gene (hERG) potassium channel, sequence (Q12809 whole entry, looked up): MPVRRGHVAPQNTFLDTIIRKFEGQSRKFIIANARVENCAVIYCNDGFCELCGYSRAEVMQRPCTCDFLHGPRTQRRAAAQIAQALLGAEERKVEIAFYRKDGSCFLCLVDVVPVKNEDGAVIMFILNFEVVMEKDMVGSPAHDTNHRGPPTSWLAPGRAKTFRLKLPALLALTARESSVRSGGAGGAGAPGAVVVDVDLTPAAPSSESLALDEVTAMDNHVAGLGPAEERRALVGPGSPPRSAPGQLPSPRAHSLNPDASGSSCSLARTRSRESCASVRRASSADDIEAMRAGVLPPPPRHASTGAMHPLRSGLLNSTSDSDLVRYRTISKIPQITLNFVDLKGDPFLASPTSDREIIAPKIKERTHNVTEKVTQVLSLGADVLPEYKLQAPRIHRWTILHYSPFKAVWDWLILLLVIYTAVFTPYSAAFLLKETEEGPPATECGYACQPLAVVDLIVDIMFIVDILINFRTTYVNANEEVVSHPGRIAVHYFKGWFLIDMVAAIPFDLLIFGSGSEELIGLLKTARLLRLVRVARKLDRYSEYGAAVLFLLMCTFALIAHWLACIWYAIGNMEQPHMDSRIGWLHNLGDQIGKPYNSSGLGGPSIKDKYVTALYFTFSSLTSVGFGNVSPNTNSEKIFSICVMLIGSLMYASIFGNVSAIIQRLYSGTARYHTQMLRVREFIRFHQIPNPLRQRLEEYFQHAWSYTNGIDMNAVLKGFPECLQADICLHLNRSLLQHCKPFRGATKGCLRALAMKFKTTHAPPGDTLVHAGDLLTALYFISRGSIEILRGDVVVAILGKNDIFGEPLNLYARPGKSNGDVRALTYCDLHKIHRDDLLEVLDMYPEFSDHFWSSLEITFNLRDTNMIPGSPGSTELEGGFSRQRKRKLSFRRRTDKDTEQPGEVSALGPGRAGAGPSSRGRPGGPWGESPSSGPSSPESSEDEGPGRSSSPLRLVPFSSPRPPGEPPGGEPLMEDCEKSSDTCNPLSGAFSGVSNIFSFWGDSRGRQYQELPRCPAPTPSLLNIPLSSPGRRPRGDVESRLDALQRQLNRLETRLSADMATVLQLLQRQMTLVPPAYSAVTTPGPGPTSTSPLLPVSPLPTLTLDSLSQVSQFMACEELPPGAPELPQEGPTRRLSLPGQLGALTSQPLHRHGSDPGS

Compound	hERG current change (%, negative = inhibition) at 1uM [%]
COC(=O)c1ccccc1NC(=O)NCc1ccncc1	3.03
CN1CCN(C2Cc3ccccc3Sc3ccc(Cl)cc32)CC1.O=C([O-])/C=C\C(=O)[O-] (centres unmarked)	5.69
COc1cccc(OCC(=O)NNC(=O)C(=O)N2CCCC2)c1	4.29
O=C(CCCN1C(=O)C2CC=CCC2C1=O)Nc1ccccc1Cl (centres unmarked)	-2.68
Cc1ccc(S(=O)(=O)NC(=O)NN2CC3CCCC3C2)cc1 (centres unmarked)	16.1
CN(CC(=O)N1CCc2ccccc21)S(=O)(=O)c1ccc(Cl)cc1	-0.885
CCOc1ccc(-c2cnc(NCc3cccc4ccccc34)n2CCOC)cc1.O=C(O)C(=O)O	6.64
CCCCCCCCCSc1n[nH]c(N)n1	2.01
CC1(C)CC(=O)C2=C(C1)Oc1ncn(CCCO)c(=N)c1C2c1ccccc1 (centres unmarked)	-0.734
CCOC(=O)c1c(NC(=O)COC(=O)c2c(C)noc2C)sc2c1CCC2	-0.511
COc1ccc(-c2nnc(-c3ccc(OCC(C)C)cc3)o2)cc1	3.41
O=[N+]([O-])c1ccc(Nc2ccccn2)c([N+](=O)[O-])c1	16.2
O=Cc1cn(Cc2ccccc2[N+](=O)[O-])c2ccccc12	11.2
CCOc1ccc(-c2nnc(SCc3nnc(-c4ccccc4)o3)n2-c2ccccc2F)cc1	0.741
CC(C)C(c1nnnn1C1CCCC1)N1c2ccccc2CC1C (centres unmarked)	1.7
Cn1cc(CN2CCN(Cc3ccccc3)C(CCO)C2)c(-c2ccccc2)n1 (centres unmarked)	-3.01
O=C(Cc1ccc(Cl)cc1)Nc1cccc(S(=O)(=O)Nc2ccccc2F)c1	10.5
CCCC1(CCC)NC(=O)NC1=O	11.7
CCN(CC)c1ccc(/C=C/c2nc3ccccc3s2)cc1	11.7
Cc1c(NS(=O)(=O)c2ccc(N)cc2)c(=O)n(-c2ccccc2)n1C	17.4
CCCCNC(=O)Cc1c(O)c2ccccc2[nH]c1=O	7.7
C=Cc1ncc(OC)c2c1[nH]c1ccccc12	12
CCOCCCNC(=O)c1ccc2c(c1)ncn2-c1ccc(C)cc1C	0.866
COc1ccc(OCC(=O)N2CCc3ccccc3C2)cc1	10.2
O=c1[nH]nc(C(F)(F)F)c2nnn(Cc3ccccc3Cl)c12	3.37
CCOc1ccc(NC(=O)c2nc(SCC)ncc2Cl)cc1	16.7
